Laboratory results: PubChem BioAssay (NCI)
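In this assay, cells in 96-well plates receive the compound at five concentrations for 48 hours. Endpoints are linearly interpolated between the surrounding concentrations. Here, GI50 denotes the concentration required for 50% inhibition of growth. TGI denotes the concentration required for complete inhibition of growth.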

The compounds below were run on NCI-H322M lung (assay: DTP human tumour cell line panel, 48 h).
`CSC12c3cc(C)n(-c4ccc(I)cc4)c3CC(C)(C)CN1C(=O)C2Oc1ccccc1` (stereo not given) was tested, and the TGI was > 100 µM. `Cc1ccc2ncnc(N(C)C3CCCCC3)c2c1` was tested, and the GI50 was 41.3 µM and the TGI was > 100 µM. For `c1cc[n+](Cc2c3ccccc3cc3c2ccc2ccccc23)cc1`, the GI50 was 4.69 µM and the TGI was 19 µM. With `O=C(Cc1cc(O)ccc1O)NO` the GI50 was > 100 µM and the TGI was > 100 µM. In the case of `COc1ccc2c(c1)OCC1c3cc(OC)c4ccccc4c3OC21` (stereo not given), the GI50 is reported as 79.3 µM and the TGI is reported as > 100 µM. `COC(=O)[C@]12CC[C@H]3CN(S(=O)(=O)c4ccc(C)cc4)[C@H]([C@H]31)[C@H](c1ccco1)N2S(=O)(=O)c1ccc(C)cc1` was tested, and the TGI was > 100 µM. In the case of `O=C1CC(n2ccnc2)c2c(Cl)sc(Cl)c21` (stereo not given), the TGI is reported as 39.9 µM. With `c1ccc2c(c1)CCN1CCc3ccccc3C1C2` (stereo not given) the TGI was > 100 µM. `COc1ccc(/C(C)=C2\CCCN(Cc3ccccc3)C2)cc1` was tested, and the TGI was > 100 µM. With `CCCCCCCCCCCCCCCC(=O)NS(=O)(=O)OC[C@H]1O[C@@H](n2cnc3c(N)ncnc32)[C@H](O)[C@@H]1O` the GI50 was < 0.0244 µM. `Cc1c2c(n3c(nc4ccccc43)c1C#N)N(c1ccc(F)cc1)CC2` was tested, and the TGI was > 100 µM. In the case of `COc1ccc2nc3cccc([N+](=O)[O-])c3c(NCCC(=O)O)c2c1`, the TGI is reported as > 10 µM. `Cc1cc(-c2nc3cc(F)ccc3s2)ccc1N` was tested, and the TGI was > 100 µM. `Cc1nn(CNc2ccc(F)c(Cl)c2)c(=S)n1/N=C/c1ccc(-c2ccc(Cl)cc2Cl)o1` showed a TGI of 40.6 µM. Compound `C/C=C\C1OC1(C)c1cc(=O)c2c(C)cc3c(c2o1)C(=O)c1c(O)c(C2CC(C)(N(C)C)C(OC(C)=O)C(C)O2)cc(C2CC(N(C)C)C(O)C(C)O2)c1C3=O` (stereo not given) has a TGI of 0.0912 µM. `CN1N=C(c2ccncc2)OC1c1cccc(F)c1` (stereo not given) was tested, and the TGI was > 100 µM. `CSC1=CC(=O)c2ccccc2C1=O` was tested, and the GI50 was 17.4 µM and the TGI was 38.1 µM. `COc1ccc(C2=C(c3ccccc3)C(=O)N3CCCC3C2)cc1` (stereo not given) was tested, and the GI50 was 3.29 µM and the TGI was > 100 µM. For `COC(=O)c1cc(O)ccc1O`, the TGI was > 100 µM. `CC(C)C[C@H](NC(=O)[C@@H](Cc1ccccc1)n1ccc(Nc2ccccc2)cc1=O)B(O)O` was tested, and the GI50 was 14.5 µM and the TGI was > 100 µM. For `COc1ccc(C[C@H]2COC(=O)[C@@H]2Cc2ccc(Br)cc2)cc1OC`, the TGI was > 100 µM. For `CCOC(=O)CCc1c(C)c2c(OC)cc(OC)cc2oc1=O`, the TGI was > 100 µM. In the case of `Cc1ccccc1N(CCC#N)C1=NN(C(=O)CC(=O)Nc2ccc(Cl)cc2)C(c2ccccc2)C1` (stereo not given), the TGI is reported as > 100 µM. In the case of `Cc1[nH]c(=O)n2c(C)nnc2c1C(=O)O`, the TGI is reported as > 100 µM. For `CC(C)N(CC(=O)O)CC(=O)O`, the TGI was > 100 µM. In the case of `CCOC(=O)c1ccc(N=C2Sc3nc4ccccc4n3C2=Nc2ccc(C(=O)OCC)cc2)cc1`, the TGI is reported as 70.6 µM. With `O=C(c1ccccc1)c1ccc(N2C(=O)/C(=C/c3cccc(Oc4ccccc4)c3)N=C2c2ccccc2)c(N2C(=O)/C(=C/c3cccc(Oc4ccccc4)c3)N=C2c2ccccc2)c1` the TGI was > 100 µM. With `C=C(C)COc1ccc2c(c1)CCC1C2CCC2(C)C(=O)/C(=N/O)CC12` (stereo not given) the TGI was 21 µM. `COc1ccc(/C=C2/SC(=Nc3ccccc3)N(NC(=O)Cc3ccccc3)C2=O)cc1` was tested, and the TGI was > 100 µM. `O=C(CCN1CCCCC1)c1csc2ccccc12` was tested, and the TGI was > 100 µM. `Cn1c2ncccc2n2c(=O)cc(O)cc12` was tested, and the TGI was > 100 µM. In the case of `CC(=O)N1C(c2[nH]c3ccccc3c2Cc2ccccc2)CCN1c1ccccc1` (stereo not given), the TGI is reported as > 10 µM. `Cc1cc2c(cc1Cl)SC(NNCCO)=NS2(=O)=O` was tested, and the TGI was > 100 µM. With `CN(C)CC1(Cc2ccccc2)CC/C(=C\c2ccccc2)C1=O` (stereo not given) the TGI was > 100 µM. `Nc1c(C(=O)Nc2cccc(Cl)c2)sc2nc3c(cc12)C(O)CCC3` (stereo not given) gave a GI50 of 0.52 µM and a TGI of 65.6 µM. In the case of `Cc1cn2c(/C=N/N=C(N)N)c(-c3ccc([N+](=O)[O-])cc3)nc2s1`, the TGI is reported as 3.11 µM. In the case of `O=C1CSC(c2ccccc2)N1c1ccc(-c2ccc(-n3c(-c4ccccc4)nc4ccccc4c3=O)cc2)cc1` (stereo not given), the TGI is reported as > 100 µM. `O=C(/C=C(/C=C/c1cccc2[nH]ccc12)OB(F)F)/C=C/c1cccc2[nH]ccc12` showed a GI50 of 1.93 µM and a TGI of 4.89 µM. `CCCCC/C=C\C=C\CCCCCCCCC(=O)OC` was tested, and the TGI was > 100 µM. `CCOC(=O)c1c2ccccc2n2c(=O)n(-c3ccc(OC)cc3)nnc12` was tested, and the TGI was > 100 µM. With `COc1cc(C2C(C(=O)NCc3ccccc3)=C(C)NC(C)=C2C(=O)NCc2ccccc2)ccc1O` the TGI was > 100 µM.
